# Data from article PMC12136788.
# The list shows a part of the results.
# T1: UNK ZnF1-3 (human, UniProt Q9C0B0 31-174)
# T1 sequence: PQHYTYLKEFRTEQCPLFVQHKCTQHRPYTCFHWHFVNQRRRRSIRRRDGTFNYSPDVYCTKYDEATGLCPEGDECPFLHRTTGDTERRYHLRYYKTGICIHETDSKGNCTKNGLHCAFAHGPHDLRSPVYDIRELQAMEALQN
# B1: chr2:26350769:26350770:+_ENSG00000084733_ENST00000264710|hu_mus|motif|central (ssRNA)
# RNA: GGGAGUUCUACAGUCCGACGAUCGAUGUCUUCAGCUAAUGUGAGGAACGCCUUUUCGAUGUUUAUAUUUGCUUUUGCACGGGUCUCAAAAAACCUAAUACCAUGCUCCCUUGCAAUCUGUUCUCCUUUGCCUUUCGGUACAACCAACAGAGGAUUGAGCAUCA
# B2: chr6:114281168:114281169:-_ENSG00000196591_ENST00000368632|hu_hu|hu_hu_hu_mus_True|68_98 (ssRNA)
# RNA: GGGAGUUCUACAGUCCGACGAUCUUCCAUUUUUCGGUAUAAGCCAUAAUUUAGCAGCAAGUUAUGAGUCAUGCGGAUUCUAUGAGGCUUCAUGGGAUGACCCUGGCCAUAAUAAUAAUUGCCAAUAUCACCAUCAUAGUAGUACAACAGAGGAUUGAGCAUCA
# B3: chr13:36049296:36049297:-_ENSG00000180660_ENST00000379919|hu_mus|motif|central (ssRNA)
# RNA: GGGAGUUCUACAGUCCGACGAUCCCACGUUUGUUUAGCAGCGUUUUCCAAGGCCGAGUGGGGUUUGCCUUGAAACAGAUCGGAGUUCGGUAAGAAGUAAUGGGGACACCGCCGGCACUGCAGGCAUGAGAUGAGCUGCAGAAGCAACAGAGGAUUGAGCAUCA
# B4: chrX:91780989:91780990:-_ENSMUSG00000025151_ENSMUST00000026142|mus_mus|FALSE|FALSE (ssRNA)
# RNA: GGGAGUUCUACAGUCCGACGAUCCUCUCUAGAUAGCGUGUUUUGAAGGAACCUGAGGCUUCAGCCUCACUCAGGGAAAACUAUUGCAAAUGAUGAGCAGUAUCUGACAAUUUACUCAACCCAGAAGAAGCCAAUGGCACCGAACAACAGAGGAUUGAGCAUCA
# B5: chr2:192257801:192257802:+_ENSG00000128641_ENST00000304164|hu_hu|motif|central (ssRNA)
# RNA: GGGAGUUCUACAGUCCGACGAUCAUAUAUCUUCUGAAUGAGAGUGGCCAAGUCCUCCAGGCGUUGCUUCCUCAGGUCUUCGGAUUUGAAUAAUGUUCUUGGGUUUCGGAUGAAUAUCUUUGAUCUACCAAAGGAGUAUUCUUCCAACAGAGGAUUGAGCAUCA
# B6: chr15:76910149:76910150:-_ENSMUSG00000033565_ENSMUST00000166610|mus_mus|motif|central (ssRNA)
# RNA: GGGAGUUCUACAGUCCGACGAUCAAUGCUGACGGAGGGAAGUCAUGUCUCUUAGGGGAAAGGAUCAGCUCAUCACUCGCGGUAUAACGCAGCCAAACGGGCUGCCCAACAAGCACGCACACAAGAAAUACUGUUAACAGAAAACAACAGAGGAUUGAGCAUCA
# B7: chr1:114340281:114340282:-_ENSG00000081019_ENST00000261441|hu_mus|FALSE|FALSE (ssRNA)
# RNA: GGGAGUUCUACAGUCCGACGAUCGUAUGCAUGAAGGACAAGAGCACCCCCAUUGGACUGGUGUUCUUCGUGAAUAAAGUUGCUAAAUUUAGUACCUGUUUUUAAGAAAUUUCUGCGAAUAGAAUGUUCUUGGUGCGUUGUAAACAACAGAGGAUUGAGCAUCA
# B8: chr11:69480760:69480761:-_ENSMUSG00000059796_ENSMUST00000163666|mus_mus|FALSE|FALSE (ssRNA)
# RNA: GGGAGUUCUACAGUCCGACGAUCUGGGGGGGGAAGGAGACGGCGCCUGGGGCAGAGCCUACCCCAAAGAAAAGGGUGUCUAAAAUGUUCACGGUUCCUUCUUUUUGCCUCAAAAAGUGACAUUUAUUCAUAGAGAAAAAAAACCAACAGAGGAUUGAGCAUCA
# B9: chr3:72423869:72423870:-_ENSG00000163602_ENST00000477973|hu_hu|FALSE|FALSE (ssRNA)
# RNA: GGGAGUUCUACAGUCCGACGAUCGCAGAAUUCAUAAAUAGACAUUUCUAUUUAAAGCAGGAAAAUGAUAAAGUGGCUUCUAAUAACAUAGUCGUGCACAUGCCAGUAACAGGAAUAUAUUAACAUCUUUUAUUUGCUAGACAACAACAGAGGAUUGAGCAUCA
# B10: 5037140_5048872_172_CDS_ENSMUSG00000022536_ENSMUST00000115844|mouse|control|control (ssRNA)
# RNA: GGGAGUUCUACAGUCCGACGAUCGAUCCAGGCAUGAUCUUCUGUUCCAAAAAACUUCACAAAGAAGCAUUUCUUUCCACGUGGUUUCUUUAAGUCCUUGGGUGGAUUAACAAUCUUUCCUGGCCAGGGAGGAUACCGGCCCAGCAACAGAGGAUUGAGCAUCA
# B11: 126671170_126673164_2480_3pUTR_ENSMUSG00000074657_ENSMUST00000099172|mouse|control|control (ssRNA)
# RNA: GGGAGUUCUACAGUCCGACGAUCGGGCAACUGUCUCCUCCAGCCCCUUGAGGUCCUGCUUGGACUGCUCAUGUCGCUCAUACAGAAAUGUCAGCUCCUGGAGCUUGGCGCUCUUCUCGUUCUCUUCAUUCUUCAGCCUCUCAUCAACAGAGGAUUGAGCAUCA
# B12: 48026277_48026397_876_CDS_ENSG00000116062_ENST00000540021|human|control|control (ssRNA)
# RNA: GGGAGUUCUACAGUCCGACGAUCGAUGACAAGAUCAAAGUUCUGAGACUUAAUCUGCCACCACUUCCUCAUCCCAGGAGUACAAGAAUUGAGGAAAUCCUCAGGCACAUAGAGUGUAGAUGCAUCAAAAUCGGGGUGAUCAGGCAACAGAGGAUUGAGCAUCA
# B13: chr2:155483634:155483635:-_ENSMUSG00000038324_ENSMUST00000041059|perfect_dup|motif|central (ssRNA)
# RNA: GGGAGUUCUACAGUCCGACGAUCGGUGACAGCCAGAAUCCGGCAGAAAUUAGCGAGCUGCUGCUGAUCGAAAUUGGAUACGGAGGAACUCAGAUUGGGGACUUCAUCUAGUCGGAUCAUUUCCUUUUUAACACCCAAAAUAUCCAACAGAGGAUUGAGCAUCA
# B14: 32422456_32422890_417_3pUTR_ENSG00000152683_ENST00000406369|human|control|control (ssRNA)
# RNA: GGGAGUUCUACAGUCCGACGAUCUUCAAUGAGCAUAUAUGUAAUACAAAGAGCAAAUGCUCCAGCAAGAUCAAUCAAAACAAAUGGAUUCAUUCGGGGAAGGAAGAUACUGCUAAGUCCCGGAAUAAUUCCACACAAGCUUCGCAACAGAGGAUUGAGCAUCA
# B15: chr17:3572670:3572671:+_ENSG00000127774_ENST00000248378|hu_hu|FALSE|FALSE (ssRNA)
# RNA: GGGAGUUCUACAGUCCGACGAUCGUAGGUGAAGAGGCCCCCGAUGAGGCCUCCUGUAAAGAGAGGUCUCCGUGAUUUGAAAUAUUUGUUCCACCUCCUUCCCGCCUUGAGAAUGAGGAGCAGGGAGAGCAGGACGGAGGCGAGCAACAGAGGAUUGAGCAUCA
# B16: chr6:83912051:83912052:+_ENSMUSG00000030016_ENSMUST00000032088|mus_hu|FALSE|FALSE (ssRNA)
# RNA: GGGAGUUCUACAGUCCGACGAUCUGCCUUUUUAUGAGAUGAUAAAAUCAAGAUAUCCUUUAAACCACCAAAUGGUUUUGCUAAGUCAUAAACUUCUUCUACAGAAUAUCCUUUAUUAGGCAAAUUAGAGACAAGCAUCACACACAACAGAGGAUUGAGCAUCA
# B17: chr2:217001844:217001845:+_ENSG00000079246_ENST00000392132|hu_hu|hu_hu_hu_mus_False|1_108 (ssRNA)
# RNA: GGGAGUUCUACAGUCCGACGAUCACCGACUUGAGGAUUAGAUCUUUUGUCAUAAGCAUAUCGGACGAUGGCGACCAUGUUUAACUCAUCCAAAGCAUGAACGAGAGAGGAAAGGGCAACAGCUGCCGCCUCAUCAUCUCUUGCCAACAGAGGAUUGAGCAUCA
# B18: chr3:100845581:100845582:-_ENSMUSG00000027864_ENSMUST00000102694|mus_mus|FALSE|FALSE (ssRNA)
# RNA: GGGAGUUCUACAGUCCGACGAUCGCUUGUGUGGGGUGCAUCUGCUACUGACUCUAAACCUGGACCCCACCUGGGCUAGAGCUACCUUCUCAAAAUCUCAUUACACGAGCAGCCCCCAAGGUGGGCUCAAAACAAGCAGAGGAACAACAGAGGAUUGAGCAUCA
# B19: chr11:106642794:106642795:-_ENSMUSG00000020719_ENSMUST00000021062|mus_mus|motif|central (ssRNA)
# RNA: GGGAGUUCUACAGUCCGACGAUCACUUUCCUUGUGUAAAAAUAAACACCAAAACAAAAAUCCCCCCCAAAAACACGGUCGGAGCCAAGUUGUACAUGACAUUAUAUAUGUAAAAUAAAGUACAAUUUCACUUAAUUCAGUCUUCAACAGAGGAUUGAGCAUCA
# B20: chr5:135510151:135510152:+_ENSG00000113658_ENST00000545279|hu_hu|FALSE|FALSE (ssRNA)
# RNA: GGGAGUUCUACAGUCCGACGAUCGAGGCUGCAGCUGCUGGGAAUCUUACAGACAGUGGUGGGAUGAAAGCCAUGAUGAAAGUUGCAGUUCCUACUCUGUACAAAUAUGCUGCUGUCACUGAGGCAUUCCGCAUACACCUCUCCCAACAGAGGAUUGAGCAUCA
# B21: chr2:241070358:241070359:-_ENSG00000172428_ENST00000607357|hu_mus|FALSE|FALSE (ssRNA)
# RNA: GGGAGUUCUACAGUCCGACGAUCCAGAGACAUCAGUACCCAGUUGGUUCAGACAGUUCCUCUAUUGGUUGACAAGGUCUUCAUUUCUAGUGAUAUCAACACGGUGUCUACAAUCAGCUGGUCGUGUCCCGAGAGACUCCAGACCAACAGAGGAUUGAGCAUCA
# B22: chr4:25749455:25749456:-_ENSG00000091490_ENST00000264868|hu_hu|hu_hu_hu_mus_False|18_38 (ssRNA)
# RNA: GGGAGUUCUACAGUCCGACGAUCGCACUAUGACCUCUAGAAAAAUCCACAGGGGGAAAAAAUGUAAACCAAUGUACAAUGUUAUCGCCUUCCCUGUAUUUCCAGGCUUUGUCUCAAUAUUUCAAGGAGCUGCUGGAUUUGGGACAACAGAGGAUUGAGCAUCA
# Target: T1, UNK ZnF1-3
# Assay: nsRBNS (natural sequence RNA bind-n-seq); RBNS binding buffer (assumed for nsRBNS): 25 mM Tris pH 7.5, 150 mM KCl, 3 mM MgCl2, 0.01% Triton X-100, 500 ug/ml BSA, 20 U/ml SUPERase-In, 4 C; UNK is unkempt and MSI1 is Musashi-1; names of the RNAs are library labels; protein concentration not given here; high values mean tight binding
row,Binder,binding signal
1,B1,0.639 enrichment R
2,B2,1.05 enrichment R
3,B3,1.34 enrichment R
4,B4,1.31 enrichment R
5,B5,0.775 enrichment R
6,B6,1.88 enrichment R
7,B7,0.946 enrichment R
8,B8,2.12 enrichment R
9,B9,1.31 enrichment R
10,B10,0.853 enrichment R
11,B11,0.61 enrichment R
12,B12,1.8 enrichment R
13,B13,1.28 enrichment R
14,B14,1.56 enrichment R
15,B15,1.1 enrichment R
16,B16,1.21 enrichment R
17,B17,1.38 enrichment R
18,B18,1.15 enrichment R
19,B19,2.28 enrichment R
20,B20,2.06 enrichment R
21,B21,0.85 enrichment R
22,B22,1.26 enrichment R
